The source gives no read counts; variants with many changes may rest on few reads.
B1: OR4K15 (parent)
chain: GUUAACGGUCAUAGGCCAUGGAAACUAGGAGCACCAUUUCGCUGCCAGUGAAGAAAUGAACAAAGAAAAUCUGGGCCAGGCAGGCAUCAAAAGAAAUAGUCUUGCGCUCAACCAGAAAGUCUGUAAUCAUUUUAAGGGUA

Variants of: B1
Test: self-cleavage, relative activity (ratio to wild type); higher = more cleavage; in vitro, sequencing; the parent is a self-cleaving ribozyme

| Variant | self-cleavage |
| --- | --- |
| GUUAACGGUCAUAGGCCAUGGAAACUAGGAGCACCAUUUCGCUGCCAGUGAAGGAAUGAACAAAGAAAAUCUGGGCCAGGCAGGCAUCAGAAGAAAUAGUCUUGCGCUCAACCAGGAAGUCUGUAAUCAUUUUAAGGGUA | 0.47 |
| GUUAACGGUCAUAGGCCAUGGAAACUAGGAGCACCAUUUCGCUGCCAGUGAAGGAAUGAACAAAGAAAAUCUGGGCCAGGCAGGCAUCAGAAGAAAUAGUCUUGCGCUCAACCAGAAGGUCUGUAAUCAUUUUAAGGGUA | 0.62 |
| GUUAACGGUCAUAGGCCAUGGAAACUAGGAGCACCAUUUCGCUGCCAGUGAAGGAAUGAACAAAGAAAAUCUGGGCCAGGCAGGCAUCAGAAGAAAUAGUCUUGCGCCCAACCAGAAAGUCUGUAAUCAUUUUAAGGGUC | 0.05 |
| GUUAACGGUCAUAGGCCAUGGAAACUAGGAGCACCAUUUCGCUGCCAGUGAAGGAAUGAACAAAGAAAAUCUGGGCCAGGCAGGCAUCAUAAGAAAUAGUCUUGCGCUCAACCAGGAAGUCUGUAAUCAUUUUAAGGGUA | 0.29 |
| GUUAACGGUCAUAGGCCAUGGAAACUAGGAGCACCAUUUCGCUGCCAGUGAAGGAAUGAACAAAGAAAAUCUGGGCCAGGCAGGCAUCAAGAGAAAUAGUCUUGCGCUCAACCAGAAAGUCUGUAAUCGUUAUAAGGGUA | 0.43 |
| GUUAACGGUCAUAGGCCAUGGAAACUAGGAGCACCAUUUCGCUGCCAGUGAAGGAAUGAACAAAGAAAAUCUGGGCCAGGCAGGCAUCAAAGGAAAUAGUCUUGCGCUCAACCAGAAAGUCUGUAAUCAUUUCAAGGGCA | 1.91 |
| GUUAACGGUCAUAGGCCAUGGAAACUAGGAGCACCAUUUCGCUGCCAGUGAAGGAAUGAACAAAGAAAAUCUGGGCCAGGCAGGCAUCAAAAGGAAUAGUCCUGCGCUCAACCAGAAAGUCUGUAAUCAUUUUGAGGGUA | 1.17 |
| GUUAACGGUCAUAGGCCAUGGAAACUAGGAGCACCAUUUCGCUGCCAGUGAAGGAAUGAACAAAGAAAAUCUGGGCCAGGCAGGCAUCAAAAGAUAUAGUCUUGCGCUCAACCAGGAAGUCUGUAAUCAUUUUAAGGGUA | 0.71 |
| GUUAACGGUCAUAGGCCAUGGAAACUAGGAGCACCAUUUCGCUGCCAGUGAAGGAAUGAACAAAGAAAAUCUGGGCCAGGCAGGCAUCAAAAGAAGUAGUCCUGCGCUCAACCAGAGAGUCUGUAAUCAUUUUAAGGGUA | 2.23 |
| GUUAACGGUCAUAGGCCAUGGAAACUAGGAGCACCAUUUCGCUGCCAGUGAAGGAAUGAACAAAGAAAAUCUGGGCCAGGCAGGCAUCAAAAGAAAUCGUCUUGCGCUUAACCAGGGAGUCUGUAAUCAUUUUAAGGGCA | 0.04 |
| GUUAACGGUCAUAGGCCAUGGAAACUAGGAGCACCAUUUCGCUGCCAGUGAAGGAAUGAACAAAGAAAAUCUGGGCCAGGCAGGCAUCAAAAGAAAUGGUCCUGCGCUCAACCAGAGAGUCUGUAAUCAUUUUAAGGGUA | 1.71 |
| GUUAACGGUCAUAGGCCAUGGAAACUAGGAGCACCAUUUCGCUGCCAGUGAAGGAAUGAACAAAGAAAAUCUGGGCCAGGCAGGCAUCAAAAGAAAUUGUCUUGCGCUCGACCAGAAAGUCUGUAAUCAUUUUAAGGGUA | 0.15 |
| GUUAACGGUCAUAGGCCAUGGAAACUAGGAGCACCAUUUCGCUGCCAGUGAAGGAAUGAACAAAGAAAAUCUGGGCCAGGCAGGCAUCAAAAGAAAUAGUCUUGCGCUCAACCAGAAGGUCUGUAAUCAUUUUAGGGGUA | 1.31 |
| GUUAACGGUCAUAGGCCAUGGAAACUAGGAGCACCAUUUCGCUGCCAGUGAAGGAAUGAACAAAGAAAAUCUGGGCCAGGCAGGCAUCAAAAGAAAUAGUCUUGCGCUCAACCAGAAUGUCUGUAAUCAUUUUAAGGGCA | 1.05 |
| GUUAACGGUCAUAGGCCAUGGAAACUAGGAGCACCAUUUCGCUGCCAGUGAAGGAAUGAACAAAGAAAAUCUGGGCCAGGCAGGCAUCAAAAGAAAUAGUCUUGCGCUCAACCAGAAAGUCUGUAGCCAUUUUAAGGGUA | 0.21 |
| GUUAACGGUCAUAGGCCAUGGAAACUAGGAGCACCAUUUCGCUGCCAGUGAAGGAAUGAACAAAGAAAAUCUGGGCCAGGCAGGCAUCAAAAGAAAUAGUCUUGCGCUCAACCAGAAAGUCUGUAGUCAUUUUAAGGGGA | 0.42 |
| GUUAACGGUCAUAGGCCAUGGAAACUAGGAGCACCAUUUCGCUGCCAGUGAAGGAAUGAACAAAGAAAAUCUGGGCCAGGCAGGCAUCAAAAGAAAUAGUCUUGCGCUCAACCAGAAAGUCUGUAAUCGUCUUAAGGGUA | 0.09 |
| GUUAACGGUCAUAGGCCAUGGAAACUAGGAGCACCAUUUCGCUGCCAGUGAAGGAAUGAACAAAGAAAAUCUGGGCCAGGCAGGCAUCAAAAGAAAUAGUCUUGCGCUCAACCAGAAAGUCUGUAAUCUUUUUAGGGGUA | 0.33 |
| GUUAACGGUCAUAGGCCAUGGAAACUAGGAGCACCAUUUCGCUGCCAGUGAAGGAAUGAACAAAGAAAAUCUGGGCCAGGCAGGCAUCAAAAGAAAUAGUCUUGCGCUCAACCAGAAAGUCUGUAAUCAUUUUAUGGGUG | 2.97 |
| GUUAACGGUCAUAGGCCAUGGAAACUAGGAGCACCAUUUCGCUGCCAGUGAAGGAAUGAACAAAGAAAAUCUGGGCUAGGCAGGCAUCAAAAGAAAUAGUCUUGCGCUCAACCAGAAAGUCUGUAAUCAUUUUGAGGGUA | 1.15 |
